Experimental data as given in the supplement of paper PMC9151546.
Single values are uncertain, as repeats are few or missing.

Key:
[1] = tested on: CHO-K1; assay: micronucleus frequency (% of nucleated events); higher = more micronuclei (genotoxic)
[2] = tested on: CHO-K1; assay: hypodiploid nuclei frequency (% of nucleated events); higher = more hypodiploid events (aneugenic)
Experimental: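 Flow-cytometric in vitro micronucleus assay (Litron MicroFlow) in CHO-K1 cells in 96-well plates, 19 concentrations (4.5-200 µM, n=1 per concentration). Without S9, cells were exposed for 24 h and sampled at 48 h. With Aroclor 1254-induced rat liver S9, cells were exposed for 3-4 h and sampled at 27-28 h. Read-outs are %MN and %hypodiploid nuclei relative to nucleated events, and relative survival as the nuclei-to-bead ratio versus the 1% DMSO vehicle control (x100).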
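For hypodiploid nuclei frequency (% of nucleated events) in this document: hypodiploid nuclei gated on a flow cytometer with 488 nm excitation after SYTOX Green staining, cultures at 37 °C, positive controls vinblastine without S9 and cyclophosphamide with S9.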
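For micronucleus frequency (% of nucleated events) in this document: cells lysed with nuclei stained by SYTOX Green, then micronucleus-gated events counted against nucleated events by flow cytometry with 488 nm excitation.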

c1ccc2c(c1)oc1ccccc12 [Dibenzofuran]
Conditions | hypodiploid nuclei frequency, S9 metabolic activation: with S9, exposure time: 3-4 hours [%] | hypodiploid nuclei frequency, S9 metabolic activation: without S9, exposure time: 24 hours [%] | micronucleus frequency, S9 metabolic activation: with S9, exposure time: 3-4 hours [%] | micronucleus frequency, S9 metabolic activation: without S9, exposure time: 24 hours [%]
[1], concentration: 4.5 (µM) | – | – | 1.54 | 1.7
[1], concentration: 5.63 (µM) | – | – | 1.73 | 1.9
[1], concentration: 7.04 (µM) | – | – | 1.37 | 1.68
[1], concentration: 8.8 (µM) | – | – | 1.55 | 1.86
[1], concentration: 11 (µM) | – | – | 1.31 | 2.08
[1], concentration: 13.7 (µM) | – | – | 1.3 | 1.7
[1], concentration: 17.2 (µM) | – | – | 1.49 | 2.06
[1], concentration: 21.5 (µM) | – | – | 1.32 | 1.94
[1], concentration: 26.8 (µM) | – | – | 1.86 | 2.56
[1], concentration: 33.6 (µM) | – | – | 1.43 | 2.08
[1], concentration: 41.9 (µM) | – | – | 1.69 | 2.46
[1], concentration: 52.4 (µM) | – | – | 2.18 | 2.42
[1], concentration: 65.5 (µM) | – | – | 1.83 | 2.08
[1], concentration: 81.9 (µM) | – | – | 2.05 | 3.32
[1], concentration: 102 (µM) | – | – | 2.37 | 3.18
[1], concentration: 128 (µM) | – | – | 2.14 | 3
[1], concentration: 160 (µM) | – | – | 3.03 | 3.26
[1], concentration: 200 (µM) | – | – | 3.01 | 3.3
[2], concentration: 4.5 (µM) | 0.15 | 0.56 | – | –
[2], concentration: 5.63 (µM) | 0.24 | 0.38 | – | –
[2], concentration: 7.04 (µM) | 0.24 | 0.82 | – | –
[2], concentration: 8.8 (µM) | 0.33 | 0.7 | – | –
[2], concentration: 11 (µM) | 0.26 | 0.44 | – | –
[2], concentration: 13.7 (µM) | 0.23 | 0.38 | – | –
[2], concentration: 17.2 (µM) | 0.19 | 0.56 | – | –
[2], concentration: 21.5 (µM) | 0.26 | 0.52 | – | –
[2], concentration: 26.8 (µM) | 0.25 | 0.92 | – | –
